Data taken from the supplement of paper PMC12217912.
This is one part of the list. The full chains were built here from the parent and the listed change. Values near 0.05 are background.

B1: TEV protease; numbered along this chain (parent)
chain: MGESLFKGPRDYNPISSSICHLTNESDGHTTSLYGIGFGPFIITNKHLFRRNNGTLVVQSLHGVFKVKDTTTLQQHLVDGRDMIIIRMPKDFPPFPQKLKFREPQREERICLVTTNFQTKSMSSMVSDTSCTFPSGDGIFWKHWIQTKDGQCGSPLVSTRDGFIVGIHSASNFTNTNNYFTSVPKNFMELLTNQEAQQWVSGWRLNADSVLWGGHKVFMVKPEEPFQPVKEATQL

Variants of: B1
Test: raw area under fraction-flipped curve 0-4 h after induction (AUC4h, not background-subtracted), DNA-recorder readout of cleavage of the substrate (dimensionless); higher = more cleavage of the substrate by the protease variant
Conditions: temperature: 34 °C; time window: 0-4 h after rhamnose induction
Procedure: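 In vivo DNA recorder in E. coli TOP10(DE3) ΔrhaA at 34 °C. Each TEVp single-site mutant (parent TEVp 0) is paired with a single-site variant of the 7-mer TEVs (canonical ENLYFQ|S). The substrate sits between flexible linkers in a Bxb1-sfGFP-TEVs-SsrA fusion, so cleavage stabilises Bxb1 and speeds flipping of a recombination array, read by NGS. The value is the raw area under the fraction-flipped curve over 0-4 h after rhamnose induction (AUC4h), with ≥20 reads per time point. It is not background-subtracted; inactive controls average about 0.047.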
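Also: Bxb1 expression induced with 0.2% (w/v) L-rhamnose at OD600 near 0.5, cultures sampled hourly, flipped fraction per protease–substrate barcode pair counted by paired-end Illumina sequencing.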

Variant | area with substrate ENAYFQS | area with substrate ENCYFQS | area with substrate ENEYFQS | area with substrate ENFYFQS | area with substrate ENHYFQS | area with substrate ENNYFQS | area with substrate ENQYFQS | area with substrate ENRYFQS | area with substrate ENSYFQS | area with substrate ENTYFQS | area with substrate ENVYFQS | area with substrate ENDYFQS | area with substrate ENGYFQS | area with substrate ENIYFQS | area with substrate ENKYFQS | area with substrate ENMYFQS | area with substrate ENWYFQS | area with substrate ENYYFQS | area with substrate ENPYFQS
V165Q | 0.047 | 0.0344 | 0.0648 | 0.0568 | 0.0391 | 0.0462 | 0.0526 | 0.0586 | 0.0484 | 0.0397 | 0.0549 |  |  |  |  |  |  |  | 
V165K | 0.0526 |  | 0.054 |  |  |  | 0.052 | 0.057 | 0.0617 | 0.0526 | 0.0616 | 0.0569 | 0.0706 | 0.0696 | 0.0529 | 0.0545 | 0.0535 | 0.0575 | 
N172D | 0.034 | 0.0616 | 0.0526 | 0.0557 | 0.0532 | 0.071 | 0.0636 | 0.0737 | 0.0595 |  |  | 0.0574 |  | 0.0505 | 0.093 |  | 0.0045 | 0.0494 | 0.0801
P89R | 0.055 |  | 0.0431 | 0.0609 | 0.0568 | 0.056 | 0.07 | 0.053 | 0.0811 | 0.0716 | 0.0615 |  | 0.0649 | 0.0859 | 0.0436 |  | 0.0526 | 0.0387 | 
E195W | 0.0784 |  |  |  |  | 0.091 | 0.0576 |  | 0.0692 | 0.0565 |  | 0.0565 |  | 0.079 | 0.0781 |  |  |  | 
E195Q | 0.0716 | 0.0867 |  |  |  | 0.0553 | 0.0743 | 0.059 | 0.0399 |  | 0.083 |  |  |  | 0.0672 | 0.0984 |  |  | 
H62T | 0.0556 | 0.0767 |  |  | 0.0649 | 0.0617 | 0.0674 |  | 0.0621 | 0.0606 | 0.0769 | 0.0649 |  |  | 0.0455 | 0.0752 | 0.0376 |  | 0.0588
P9S | 0.0574 |  |  | 0.0687 | 0.0511 | 0.0952 | 0.0677 |  |  | 0.0565 | 0.0481 |  | 0.0706 | 0.0911 | 0.0648 |  |  |  | 0.0627
Q74N | 0.0608 |  | 0.0606 | 0.0568 |  |  | 0.0578 |  |  |  |  |  |  | 0.134 | 0.093 | 0.0958 |  |  | 
Q74L | 0.0554 |  |  |  | 0.061 | 0.056 | 0.0551 | 0.0484 |  | 0.0698 | 0.0748 |  | 0.0629 |  |  |  |  |  | 
T31Y | 0.0602 | 0.0734 | 0.0687 | 0.0546 | 0.0515 |  |  |  |  | 0.0564 |  | 0.0587 | 0.0623 |  | 0.0592 | 0.0813 |  |  | 
W203H | 0.0544 |  | 0.0575 | 0.0566 | 0.0572 |  | 0.0565 | 0.0644 | 0.0569 | 0.0673 | 0.0686 | 0.0763 | 0.0733 | 0.0491 |  | 0.0999 | 0.0461 | 0.0637 | 
F49T | 0.0565 | 0.0775 | 0.0704 |  | 0.0528 | 0.0558 | 0.0568 | 0.0495 | 0.0541 | 0.0734 | 0.0599 | 0.0614 | 0.0521 |  | 0.0573 | 0.0556 | 0.0555 | 0.0481 | 
Y179H | 0.0452 | 0.0605 | 0.0452 | 0.0569 | 0.064 | 0.0763 |  | 0.0528 | 0.051 | 0.0678 | 0.0492 | 0.0581 |  | 0.0721 |  | 0.0671 |  | 0.0486 | 
V57H | 0.0581 |  | 0.0668 |  |  |  | 0.0535 | 0.0524 | 0.0604 |  | 0.0902 | 0.0737 | 0.0567 | 0.102 |  | 0.0896 |  | 0.0553 | 0.0605
T115H | 0.0498 | 0.104 |  | 0.0625 | 0.0586 |  | 0.0515 | 0.0725 | 0.0546 | 0.0789 |  | 0.0624 |  |  | 0.0714 | 0.0773 | 0.0125 |  | 0.063
L5S | 0.0634 | 0.071 | 0.0575 | 0.0553 | 0.0557 | 0.0621 | 0.0575 | 0.0393 | 0.0265 | 0.0641 | 0.0844 |  | 0.0684 |  |  |  |  |  | 
L5I | 0.0666 |  |  |  | 0.0443 |  | 0.0431 | 0.0541 |  | 0.0439 | 0.0943 |  |  | 0.115 |  |  |  |  | 0.0512
N178P | 0.0696 |  | 0.0385 |  |  | 0.0671 | 0.0367 |  |  | 0.0332 |  | 0.0513 |  |  | 0.0536 |  |  |  | 
K90D | 0.0599 |  | 0.0639 |  |  |  |  |  | 0.0586 |  | 0.0641 | 0.0639 | 0.0575 |  |  |  |  |  | 0.0554
F187V | 0.0365 |  |  |  |  |  | 0.0609 |  | 0.0559 | 0.0571 | 0.0579 |  |  |  | 0.0551 |  |  |  | 0.0695
F187S | 0.0484 | 0.049 | 0.0725 | 0.0712 | 0.0801 | 0.0534 | 0.0489 | 0.0447 | 0.0519 | 0.0554 |  | 0.0463 | 0.0728 |  | 0.0599 |  |  | 0.0626 | 
V157H | 0.0439 | 0.0608 | 0.0417 | 0.0533 | 0.0788 | 0.0501 | 0.0473 | 0.0577 |  | 0.0488 | 0.0595 | 0.0548 | 0.0674 |  | 0.0594 |  |  |  | 0.0595
R51Q | 0.0642 | 0.0778 | 0.0655 | 0.056 | 0.0708 | 0.0547 | 0.0503 | 0.0586 | 0.0475 | 0.0503 | 0.0823 | 0.0518 | 0.0514 |  | 0.0575 | 0.078 |  | 0.0543 | 0.0339
S169H | 0.0539 | 0.0644 | 0.0602 |  |  | 0.0482 | 0.0403 | 0.0634 |  |  | 0.058 | 0.0644 | 0.0582 | 0.0676 |  | 0.0467 | 0.0359 | 0.0593 | 
S171W | 0.0628 |  | 0.0599 | 0.0698 | 0.0228 |  | 0.0548 |  | 0.0613 |  |  |  |  |  | 0.0831 |  |  |  | 
G153H | 0.0415 | 0.0386 | 0.0428 | 0.0313 | 0.0454 |  | 0.0491 | 0.0364 | 0.0417 |  |  | 0.0593 | 0.0349 |  | 0.0426 |  |  |  | 0.0251
N206W | 0.0562 | 0.0695 | 0.0729 | 0.0625 | 0.0587 |  | 0.056 |  |  |  |  | 0.0605 | 0.057 |  | 0.0719 |  |  | 0.0696 | 0.0569
K185Y | 0.05 | 0.0728 | 0.0543 | 0.0549 |  | 0.0585 | 0.0601 | 0.0576 |  | 0.062 | 0.0685 |  | 0.0512 | 0.134 | 0.0775 | 0.0382 | 0.0469 | 0.0494 | 0.0617
